Measured values published in patent US20230143604A1, “QW DOSING OF GIP RECEPTOR AGONIST PEPTIDE COMPOUNDS AND USES THEREOF” (TAKEDA PHARMACEUTICAL COMPANY LIMITED, priority 2020, published 2023).
Like-named read-outs stand apart in the source and are kept apart here. Part of at least one peptide drawing is inferred or uncertain, most often the ends. Starred links: 1 amine or outer side, 2 acyl side, 3 side chain; linkers in the order of their positions; H or OH if unused. Non-standard residues stand in square brackets, D forms with d. Residues, ends and D or L forms follow the SMILES beside them. Groups on a side chain read outwards from the residue. *: point of attachment. C18 diacid = O=C(O)CCCCCCCCCCCCCCCCC(=O)*; C17 diacid = O=C(O)CCCCCCCCCCCCCCCC(=O)*; γGlu = O=C(O)[C@H](CCC(=O)[*:2])N[*:1]; NMeY = CN[C@@H](Cc1ccc(O)cc1)C(=O)O; AEEA = NCCOCCOCC(=O)O; Aib = CC(C)(N)C(=O)O

Columns and labels:
human GIPR = molecular target: T1, human GIPR (Homo sapiens, UniProt P48546); assay: Human GIPR agonist activity, intracellular cAMP accumulation; assay type: cell-based; details: HEK-293T cells overexpressing human GIPR, 1 hr, read-out: Human GIPR cAMP EC50, HEK293T
T1 construct: HEK-293T cells overexpressing full-length human GIPR; FLAG (N); host or cells: HEK-293T
T1 sequence (P48546 22-466): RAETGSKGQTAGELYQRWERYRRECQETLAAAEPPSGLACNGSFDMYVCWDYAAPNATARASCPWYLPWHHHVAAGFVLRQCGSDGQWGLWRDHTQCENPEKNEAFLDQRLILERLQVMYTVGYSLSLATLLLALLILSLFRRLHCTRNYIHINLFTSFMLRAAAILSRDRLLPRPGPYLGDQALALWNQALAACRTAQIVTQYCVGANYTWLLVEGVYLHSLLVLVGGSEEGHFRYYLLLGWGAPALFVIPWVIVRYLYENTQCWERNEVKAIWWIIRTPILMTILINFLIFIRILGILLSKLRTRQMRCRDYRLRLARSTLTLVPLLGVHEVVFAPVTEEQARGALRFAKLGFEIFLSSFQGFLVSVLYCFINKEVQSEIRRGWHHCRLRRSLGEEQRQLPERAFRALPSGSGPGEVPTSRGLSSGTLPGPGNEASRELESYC
Procedure: Cells are cultured per the manufacturer's protocol in DMEM with 10% fetal bovine serum and 1 μg/mL puromycin and stored in frozen aliquots to be used as assay ready cells. On the day of the assay, cells are removed from frozen storage, washed two times in 1× Kreb's Ringer Buffer (Zenbio, Research Triangle Park, N.C.), and re-suspended to a concentration of 4×10^5 cells/mL in 1× Kreb's Ringer Buffer. […] Cells are incubated with test compound for 1 hr at room temperature in the dark, and cAMP accumulation is measured using the Cisbio HiRange cAMP assay kit (Bedford, Mass.) per the manufacturer's protocol. Anti-cAMP antibody and d2-cAMP tracer reagents diluted in lysis/detection buffer are incubated in the dark for 1 hr, and results are measured on an Envision plate reader (Perkin Elmer, Waltham, Mass.). Data is normalized using 1 nM GIP as 100% activity, and DMSO alone as 0% activity.

human GLP-1R = molecular target: T2, human GLP-1R (Homo sapiens, UniProt P43220); assay: Human GLP1R agonist activity, intracellular cAMP accumulation; assay type: cell-based
T2 construct: HEK-293T cells overexpressing full-length human GLP-1R; FLAG (N); host or cells: HEK-293T
T2 sequence (P43220 24-463): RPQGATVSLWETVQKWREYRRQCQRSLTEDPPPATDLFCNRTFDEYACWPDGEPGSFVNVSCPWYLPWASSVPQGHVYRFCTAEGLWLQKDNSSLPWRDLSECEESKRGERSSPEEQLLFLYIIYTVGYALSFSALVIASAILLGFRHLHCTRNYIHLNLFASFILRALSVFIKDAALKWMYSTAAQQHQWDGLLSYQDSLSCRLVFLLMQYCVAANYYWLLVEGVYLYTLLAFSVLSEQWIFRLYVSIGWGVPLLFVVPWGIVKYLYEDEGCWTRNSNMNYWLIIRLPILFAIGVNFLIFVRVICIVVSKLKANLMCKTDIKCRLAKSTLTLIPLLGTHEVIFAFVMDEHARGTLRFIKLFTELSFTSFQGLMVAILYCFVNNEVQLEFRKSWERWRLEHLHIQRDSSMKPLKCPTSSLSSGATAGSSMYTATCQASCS
Summary of the method: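 cAMP accumulation is measured by HTRF after a 1 hr, room-temperature, dark exposure of thawed cells (4×10^5 cells/mL in Krebs Ringer buffer) to compound. Activity is scaled between DMSO alone as 0% and 1 nm GLP-1 as 100%.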

C57BL/6J mice = assay: Oral glucose tolerance test (OGTT); assay type: in vivo; details: 3 nmol/kg s.c., 24 hours before glucose loading
Summary of the method: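 Peptide or vehicle given s.c. at 0.1, 0.3, 3 or 10 nmol/kg (peptide-dependent), 24 h before oral 50% dextrose at 5 ml/kg unless stated otherwise. Blood glucose read at 0, 15, 30 and 60 min. % inhibition = (1−(AUC cpd−AUC naïve)/(AUC veh−AUC naïve))×100.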

female beagle dogs = assay: PYY-1119-induced vomiting in dogs; assay type: in vivo; details: 72 hours post-dose (lower line)
Procedure: The GIPR agonist peptide compounds of the present disclosure or vehicle (0.09% [w/v] Tween 80/10% DMSO/PBS) were administered subcutaneously (sc) at 3-10 nmol/kg to female beagle dogs (10 months old), followed by sc injections with Y2R agonist ((4-imidazolecarbonyl-Ser-D-Hyp-Iva-Pya(4)-Cha-Leu(Me)-Asn-Lys-Aib-Thr-Arg-Gln-Arg-Cha-NH2), […]), […]) at 1 hour or specified hours in the table postdose. Emetic episodes were counted for 2 hours after administration (by blinded analysis).

[1] = read-out: Human GLP1R cAMP EC50, HEK293T, HEK-293T cells overexpressing human GLP-1R, 1 hr
[2] = HEK-293T cells overexpressing human GLP-1R, 1 hr, read-out: Human GLP1R cAMP EC50, HEK293T

SMILES	EC50 (human GIPR) [nM]	EC50 (human GLP-1R; [1]) [nM]	Oral Glucose Tolerance Test Percent decrease in blood glucose AUC (%) over 60 mins (C57BL/6J mice)	Inhibition (%) of PYY-1119-induced emetic event (female beagle dogs; 10 nmol/kg s.c.)	Inhibition (%) of PYY-1119-induced emetic event (female beagle dogs; 3 nmol/kg s.c.)	EC50 (human GLP-1R; [2]) [nM]
CC[C@H](C)[C@H](NC(=O)[C@H](CCCCN)NC(=O)[C@H](CC(=O)O)NC(=O)[C@H](CC(C)C)NC(=O)C(C)(C)NC(=O)[C@@H](NC(=O)[C@H](CO)NC(=O)[C@H](Cc1ccc(O)cc1)NC(=O)[C@H](CC(=O)O)NC(=O)[C@H](CO)NC(=O)[C@@H](NC(=O)[C@H](Cc1ccccc1)NC(=O)[C@@H](NC(=O)CNC(=O)[C@H](CCC(=O)O)NC(=O)C(C)(C)NC(=O)[C@@H](N)Cc1ccc(O)cc1)[C@@H](C)O)[C@@H](C)CC)[C@@H](C)CC)C(=O)N[C@@H](CCCCNC(=O)COCCOCCNC(=O)COCCOCCNC(=O)CC[C@H](NC(=O)CCCCCCCCCCCCCCCCC(=O)O)C(=O)O)C(=O)N[C@@H](CCC(N)=O)C(=O)N[C@@H](C)C(=O)N[C@@H](CC(=O)O)C(=O)N[C@@H](Cc1ccccc1)C(=O)N[C@H](C(=O)N[C@@H](CC(N)=O)C(=O)N[C@@H](Cc1c[nH]c2ccccc12)C(=O)N[C@@H](CC(C)C)C(=O)N[C@@H](CC(C)C)C(=O)N[C@@H](C)C(=O)N[C@@H](CCC(N)=O)C(=O)N[C@@H](CCCNC(=N)N)C(=O)NCC(=O)O)C(C)C [Compound 172] (H-Y[Aib]EGTFISDYSI[Aib]LDKIK([AEEA-AEEA-γGlu-C18 diacid])QADFVNWLLAQRG-OH)	0.0011					
CC[C@H](C)[C@H](NC(=O)[C@H](CO)NC(=O)[C@H](Cc1ccc(O)cc1)NC(=O)[C@H](CC(=O)O)NC(=O)[C@H](CO)NC(=O)[C@@H](NC(=O)[C@H](Cc1ccccc1)NC(=O)[C@@H](NC(=O)CNC(=O)[C@H](CCC(=O)O)NC(=O)C(C)(C)NC(=O)[C@H](Cc1ccc(O)cc1)NC)[C@@H](C)O)[C@@H](C)CC)C(=O)N[C@@H](C)C(=O)N[C@@H](CC(C)C)C(=O)N[C@@H](CC(=O)O)C(=O)N[C@@H](CCCNC(=N)N)C(=O)NC(C)(C)C(=O)N[C@@H](CCCCNC(=O)COCCOCCNC(=O)COCCOCCNC(=O)CC[C@H](NC(=O)CC[C@H](NC(=O)CCCCCCCCCCCCCCCC(=O)O)C(=O)O)C(=O)O)C(=O)N[C@@H](CCC(N)=O)C(=O)NC(C)(C)C(=O)N[C@@H](CC(N)=O)C(=O)N[C@@H](Cc1ccccc1)C(=O)N[C@H](C(=O)N[C@@H](CC(N)=O)C(=O)N[C@@H](Cc1c[nH]c2ccccc12)C(=O)N[C@@H](CC(C)C)C(=O)N[C@@H](CC(C)C)C(=O)N[C@@H](C)C(=O)N[C@@H](CCC(N)=O)C(=O)N[C@@H](CO)C(=O)N1CCC[C@H]1C(=O)N[C@@H](CO)C(=O)N[C@@H](CO)C(=O)NCC(=O)N[C@@H](C)C(=O)N1CCC[C@H]1C(=O)N1CCC[C@H]1C(=O)N1CCC[C@H]1C(=O)N[C@@H](CO)C(N)=O)C(C)C [Compound 11] (H-[NMeY][Aib]EGTFISDYSIALDR[Aib]K([AEEA-AEEA-γGlu-γGlu-C17 diacid])Q[Aib]NFVNWLLAQSPSSGAPPPS-NH2)		≥ 1000	28% (3 nmol/kg)	100% (10 nmol/kg)		
CC[C@H](C)[C@H](NC(=O)[C@H](CCCNC(=N)N)NC(=O)[C@H](CC(=O)O)NC(=O)[C@H](CC(C)C)NC(=O)[C@H](C)NC(=O)[C@@H](NC(=O)[C@H](CO)NC(=O)[C@H](Cc1ccc(O)cc1)NC(=O)[C@H](CC(=O)O)NC(=O)[C@H](CO)NC(=O)[C@@H](NC(=O)[C@H](Cc1ccccc1)NC(=O)[C@@H](NC(=O)CNC(=O)[C@H](CCC(=O)O)NC(=O)C(C)(C)NC(=O)[C@H](Cc1ccc(O)cc1)NC)[C@@H](C)O)[C@@H](C)CC)[C@@H](C)CC)C(=O)N[C@@H](C)C(=O)N[C@@H](CCC(N)=O)C(=O)N[C@@H](CCC(N)=O)C(=O)N[C@@H](CCCCNC(=O)COCCOCCNC(=O)COCCOCCNC(=O)CC[C@H](NC(=O)CC[C@H](NC(=O)CCCCCCCCCCCCCCCCC(=O)O)C(=O)O)C(=O)O)C(=O)N[C@@H](Cc1ccccc1)C(=O)N[C@H](C(=O)N[C@@H](CC(N)=O)C(=O)N[C@@H](Cc1c[nH]c2ccccc12)C(=O)N[C@@H](CC(C)C)C(=O)N[C@@H](CC(C)C)C(=O)N[C@@H](C)C(=O)N[C@@H](CCC(N)=O)C(=O)N[C@@H](CO)C(=O)N1CCC[C@H]1C(=O)N[C@@H](CO)C(=O)N[C@@H](CO)C(=O)NCC(=O)N[C@@H](C)C(=O)N1CCC[C@H]1C(=O)N1CCC[C@H]1C(=O)N1CCC[C@H]1C(=O)N[C@@H](CO)C(=O)O)C(C)C [Compound 177] (H-[NMeY][Aib]EGTFISDYSIALDRIAQQK([AEEA-AEEA-γGlu-γGlu-C18 diacid])FVNWLLAQSPSSGAPPPS-OH)		100	47% (3 nmol/kg)		83% (3 nmol/kg)	
CC[C@H](C)[C@H](NC(=O)[C@H](CO)NC(=O)[C@H](Cc1ccc(O)cc1)NC(=O)[C@H](CC(=O)O)NC(=O)[C@H](CO)NC(=O)[C@@H](NC(=O)[C@H](Cc1ccccc1)NC(=O)[C@@H](NC(=O)CNC(=O)[C@H](CCC(=O)O)NC(=O)C(C)(C)NC(=O)[C@@H](N)Cc1ccc(O)cc1)[C@@H](C)O)[C@@H](C)CC)C(=O)N[C@@H](C)C(=O)N[C@@H](CC(C)C)C(=O)N[C@@H](CC(=O)O)C(=O)N[C@@H](CCCCN)C(=O)N[C@@H](C)C(=O)N[C@@H](C)C(=O)N[C@@H](CCC(N)=O)C(=O)NC(C)(C)C(=O)N[C@@H](CCCCNC(=O)COCCOCCNC(=O)COCCOCCNC(=O)CC[C@H](NC(=O)CC[C@H](NC(=O)CCCCCCCCCCCCCCCCC(=O)O)C(=O)O)C(=O)O)C(=O)N[C@@H](Cc1ccccc1)C(=O)N[C@H](C(=O)N[C@@H](CCC(=O)O)C(=O)N[C@@H](Cc1c[nH]c2ccccc12)C(=O)N[C@@H](CC(C)C)C(=O)N[C@@H](CC(C)C)C(=O)N[C@@H](C)C(=O)N[C@@H](CCC(N)=O)C(=O)N[C@@H](CCCNC(=N)N)C(=O)NCC(=O)O)C(C)C [Compound 154] (H-Y[Aib]EGTFISDYSIALDKAAQ[Aib]K([AEEA-AEEA-γGlu-γGlu-C18 diacid])FVEWLLAQRG-OH)			51% (3 nmol/kg)		98% (3 nmol/kg)	8.91
CC[C@H](C)[C@H](NC(=O)[C@H](CO)NC(=O)[C@H](Cc1ccc(O)cc1)NC(=O)[C@H](CC(=O)O)NC(=O)[C@H](CO)NC(=O)[C@@H](NC(=O)[C@H](Cc1ccccc1)NC(=O)[C@@H](NC(=O)CNC(=O)[C@H](CCC(=O)O)NC(=O)C(C)(C)NC(=O)[C@H](Cc1ccc(O)cc1)NC)[C@@H](C)O)[C@@H](C)CC)C(=O)N[C@@H](C)C(=O)N[C@@H](CC(C)C)C(=O)N[C@@H](CC(=O)O)C(=O)N[C@@H](CCCCN)C(=O)N[C@@H](C)C(=O)N[C@@H](C)C(=O)N[C@@H](CCC(N)=O)C(=O)NC(C)(C)C(=O)N[C@@H](CCCCNC(=O)COCCOCCNC(=O)COCCOCCNC(=O)CC[C@H](NC(=O)CC[C@H](NC(=O)CCCCCCCCCCCCCCCCC(=O)O)C(=O)O)C(=O)O)C(=O)N[C@@H](Cc1ccccc1)C(=O)N[C@H](C(=O)N[C@@H](CCC(=O)O)C(=O)N[C@@H](Cc1c[nH]c2ccccc12)C(=O)N[C@@H](CC(C)C)C(=O)N[C@@H](CC(C)C)C(=O)N[C@@H](C)C(=O)N[C@@H](CCC(N)=O)C(=O)N[C@@H](CCCNC(=N)N)C(=O)NCC(=O)O)C(C)C [Compound 174] (H-[NMeY][Aib]EGTFISDYSIALDKAAQ[Aib]K([AEEA-AEEA-γGlu-γGlu-C18 diacid])FVEWLLAQRG-OH)			41% (3 nmol/kg)		87% (3 nmol/kg)	47.9
